± gives the standard deviation of the averaged measurements. The list shows a part of the results.
tested on: PfAP2-I AP2 domain 3 (GST-tagged); assay: gcPBM binding intensity (ln(normalized median fluorescence intensity)); higher = stronger DNA binding
Outline: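 Binding intensity is the highest Masliner-normalised natural-log median intensity over replicate spots in either probe orientation. To obtain it, GST-tagged P. falciparum DNA-binding domains made in E. coli were incubated for 1 h on an Agilent 4 × 180k array of primer-extended double-stranded 36-bp intergenic genomic probes plus negative controls. Detection used Alexa488 anti-GST antibody with scanning at 488 nm.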

Sequence | gcPBM binding intensity (ln)
TACACAAGAAAATTCACACACACACCGATATATATA [CACACA_site6008] | 8.17 ± 0.67
GAAATGGGTAAACATACACACACACCGATATATATA [CACACA_site8610] | 8.26 ± 0.71
TAACAATTATGCTGGTGTACGTTTGAAATTGGGTAT [XGTACX_site6846] | 8.2 ± 0.42
AAAAATTTCTATTTTTGTACTTACTTTTTAGTAATA [XGTACX_site5236] | 7.54 ± 0.49
AACATCAAAATATGCACACAAACAATTAGCGGTAGT [CACACA_site2521] | 8.84 ± 0.6
AAAAAAAAAGACAAAAGTACAAAGGTTCATAATTTA [XGTACX_site3978] | 7.52 ± 0.64
GATTTACATTTTGATGAAAATAATAAAATGTGGAAA [TGCATGCA_negctrl_site409] | 7.83 ± 0.82
ATATTTTATTTTTAAAGTACAAAAGAAAAGAATAAT [XGTACX_site8247] | 7.91 ± 0.49
CACAGACACGGACACACACACATATATATATATATA [CACACA_site5248] | 9.57 ± 0.49
AACAAAATAGGGAACACACACATGTCGATATATAAA [CACACA_site7265] | 7.83 ± 0.47
ATACACACATATATGTGTACATATACATATATATAT [XGTACX_site6744] | 9.09 ± 0.071
ATAATATGAAGAAGCACACTCAATTAAATACAGATA [CACACA_site4690] | 7.85 ± 0.55
TTATGAATACTTCAAGTGCATTTATTTTATATGACA | 10.1 ± 0.48
ATATTCTAAATAAAGGGTACACAAAAATAATTAAAG [XGTACX_site5529] | 8.29 ± 0.55
ATTGTGGATATTCTTACACACAAATTTATATATAAA [CACACA_site2601] | 7.62 ± 0.61
TTTTGTATATTATATGTACACACAATAAGTTAATAT [CACACA_site8207] | 8.05 ± 0.34
TATTTGTAATATTATACACACATTATGTATTACAAA [CACACA_site3386] | 7.83 ± 0.53
ATATATATATAAAGCAGTACACACATTTATTTTAGA [XGTACX_site7226] | 9.24 ± 0.23
TATGAACTTTTGGGGGTGCCTTAAAATGTATATTCT | 11.2 ± 0.53
TCCCAATTTATTATGTGTACTTATTATATACATATA [XGTACX_site4033] | 7.85 ± 0.38

Sequence | gcPBM binding intensity (ln)
TATCAAAGTAGAAGAGATCGATGTCATATTGTGATG [GTGCAC_negctrl_site42] | 7.73 ± 0.75
TATATAATATATTTATGTACGTATTTAAAAATTTAT [XGTACX_site160] | 7.79 ± 0.22
TGTATTTATTAATGTACACACATGCGTATGTTCGTT [CACACA_site5892] | 7.92 ± 0.57
GAAGGAAATAAATCAACACACATATATTATATATAT [CACACA_site2188] | 8.27 ± 0.42
CATAAATATTTGTGTTGTACAAATATATATATTTAT [XGTACX_site7363] | 7.7 ± 0.48
TTGTGTGAGCAAGTAGTGCATAATATAAATAAAAAA [GTGCAC_site9802] | 11.2 ± 0.54
TGAAATTTGTTATATGCATGTAAAATATTACGACGA [TGCATGCA_site201] | 8.28 ± 0.76
AAAATTGAAGGTAGAAGTACATATTTATTTCAATAA [XGTACX_site8732] | 7.58 ± 0.52
ATAGAATATTTTATTACACACAGAATAATAAAAAAT [CACACA_site6190] | 7.63 ± 0.52
TTATTTTTTTTAGCATATACAAATATATATATATAT [GTGCAC_negctrl_site4] | 9.24 ± 0.26
CTAAAAGGATGATGAATGCACTATTATTTATATGGA | 10 ± 0.2
AAGAATTATTTTTTATGTACTTATATGTCAATTTTC [XGTACX_site6676] | 7.85 ± 0.42
AAAAAAAAGGAAATAACACACATGTATATATTTATA [CACACA_site1606] | 7.46 ± 0.46
CACCATGTTAACAATACATGCATCACTATATAAATG [TGCATGCA_site36] | 7.96 ± 0.74
AGTAATTATTTTAGAGTGCATAGTTTTTTAATAAAT | 9.54 ± 0.18
AAATATATTTTTAATAGTACAATATGAAAATTTCAT [XGTACX_site2562] | 7.63 ± 0.51
TTTTTTTTTTTTTTTTGTACTCATACATACTATTAT [XGTACX_site989] | 8.07 ± 0.57
GTACACATATATATATATATATATATATATATATAT [CACACA_negctrl_site800] | 9.3 ± 0.58
TAATTTTCATGTTCATGTACTTAAATATAAGGTAAA [XGTACX_site3284] | 7.74 ± 0.45
ATTCATAACAAAAAAAGTACTCAAAATAATAATAAA [XGTACX_site6079] | 7.76 ± 0.58

Sequence | gcPBM binding intensity (ln)
TGCCTTATTAAAAGAATTACACATATTTAATCGAAA [GTGCAC_negctrl_site153] | 7.68 ± 0.28
ATAAAAAAATAAATAACACACAAAATTACACGAAAA [CACACA_site3620] | 8.06 ± 0.7
TATTAAAAAATTATATGTACACATTTGTTATATACA [XGTACX_site2232] | 7.91 ± 0.092
TTCTTTATATATGTTCGTACATATTATTATAATACA [XGTACX_site1549] | 8.14 ± 0.49
AATTAAAGGAATTACAACTTTGCAAGCGCAACATAA [CACACA_negctrl_site1411] | 7.54 ± 0.64
TATGTCCATATTTCCACACACATATTATTTTTATAT [CACACA_site3798] | 8.18 ± 0.53
ACGTTACATACATATACACACACATATATATATATA [CACACA_site8203] | 9.22 ± 0.39
TATATATATTATTATGCATGTAATAAAACAAATAAT [TGCATGCA_site625] | 8.53 ± 0.72
GGTGGTGGTGGGTGGGTGCTTCTATTATTATATTAT [GTGCAC_site9391] | 10.7 ± 0.47
GATGTTTCTATTTTAGTGCATTTTAAATAAATAAAT | 10.4 ± 0.12
CTTAGGTGTTCATAGAGTACAAATAAAAAAATAAGA [XGTACX_site2294] | 8.04 ± 0.83
ATATATATTTTAATAACACACATATATTATATTATA [CACACA_site4387] | 8 ± 0.35
TCATTCTAAATATAAACACACATAAATAAATACATT [CACACA_site5788] | 7.67 ± 0.57
ATTTCTTCTTTTTTTGTGAAACTGGAATATATATAT [XGTACX_negctrl_site527] | 8.55 ± 0.34
AATATTTCTTTAATTTGTACATATAAGGGAAAATAA [XGTACX_site6221] | 7.97 ± 0.35
TTTTATTAATATTGCATGCACACTATATAATAATTG [CACACA_site1049] | 8.73 ± 0.49
CGGAAAAATTAAAGCACACAAAAAAAAATAAAAAAA [CACACA_site1133] | 9.86 ± 0.55
TTTTTATTATTTTAAAGTACTCTTTAGTAATTCCCT [XGTACX_site5863] | 7.59 ± 0.77

— the supplement of paper PMC11417369
